Assay results reported in PubChem BioAssay AID1745853 (National Center for Advancing Translational Sciences (NCATS), 2022).
Where “and” joins values, the source holds several entries; their conditions need not be identical. Identical values can stand only once. Some of the results follow. Shown are side measurements of this screen, not its main read-out; they come without a call.

Tests used:
Test in all cases: Primary Screen for Target Class Profiling of Small Molecule Inhibitors of Methyltransferases
[1] = biological target: Glycine N-methyltransferase (Homo sapiens) (UniProt Q14749); conditions: purified enzyme, MTase-Glo SAH luminescence; measured here: GNMT inhibition; at 40 µM; stronger effect = lower value
How it was run: (§1)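 Each enzyme was assayed with SAM and its substrate. SAH formation detected by MTase-Glo luminescence; single-point 40 uM screen[…].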

[2] = biological target: Guanidinoacetate N-methyltransferase (Homo sapiens) (UniProt Q14353); conditions: purified enzyme, MTase-Glo SAH luminescence; measured here: GAMT inhibition; at 40 µM; stronger effect = lower value
How it was run: as §1

[3] = biological target: Histamine N-methyltransferase (Homo sapiens) (UniProt P50135); conditions: purified enzyme, MTase-Glo SAH luminescence; measured here: HNMT inhibition; at 40 µM; stronger effect = lower value
How it was run: as §1

[4] = biological target: Nicotinamide N-methyltransferase (Homo sapiens) (UniProt P40261); conditions: purified enzyme, MTase-Glo SAH luminescence; measured here: NNMT inhibition; at 40 µM; stronger effect = lower value
How it was run: as §1

[5] = biological target: Phenylethanolamine N-methyltransferase (Homo sapiens) (UniProt P11086); conditions: purified enzyme, MTase-Glo SAH luminescence; measured here: PNMT inhibition; at 40 µM; stronger effect = lower value
How it was run: as §1
On the % scale 0 is the no-effect control and ±100 the full control effect.

SMILES	activity change, negative = inhibition [1]	activity change, negative = inhibition [2]	activity change, negative = inhibition [3]	activity change, negative = inhibition [4]	activity change, negative = inhibition [5]
O=C1NCCOCCCN(S(=O)(=O)c2ccccc2)[C@H]2CCCC[C@@H]12	-1.26%	-2.22%	-0.533%	-3.46%	1.69%
O=C(c1sccc1Cl)N1CCn2nc(C(O)c3ccccc3)cc2C1 (configuration not stated)	-4.97%	-2.98%	-1.61%	-7.35%	-20.3%
Cc1cnc(C)c(-c2cc(O)c3c(c2)CNCCO3)n1	-4.78%	-1.05%	1.55%	-1.55%	-11.6%
CCCN1C(=O)c2c(C(=O)NCc3ccc(OCC)cc3)ncn2CC1(C)C(=O)NCc1ccc(C)cc1 (configuration not stated)	1.6%	0%	6.37%	5.81%	7.49%
O=C(NC1CC1)c1ccc2c(=O)nc3c(-c4ccccc4)n[nH]n3c2c1	-1.23%	6.26%	-1.55%	3.86%	0.46%
Cc1cccc(NC(=O)CN2CCC(c3ccccn3)CC2)c1	2.79%	0.708%	5.57%	-14.3%	-3.92%
CC(C)CCn1c(=O)c2ccccc2n2c(SCc3cccc(F)c3)nnc12	0.14%	2.96%	10.2%	-5.87%	7.99%
CC(C)NC(=O)C1CCCN1c1nc2ncccc2o1 (configuration not stated)	-3.77%	-6.46%	-1.3%	-5.89%	-6.5%
Cc1ccc(N2CCN(C(=O)Cn3c(=O)oc4cc(S(=O)(=O)N5CCCC5)ccc43)CC2C)cc1 (configuration not stated)	0.112%	3.67%	-1.29%	-3.51%	-6.16%
Cc1ccc2c(c1)c(-n1cccc1)c1n2CC(C)(C(=O)NCCC(C)C)N(Cc2cccnc2)C1=O (configuration not stated)	-12.2%	3.32%	-4.08%	-34.3%	-2.25%
CCOC(=O)c1cc2n(n1)CC(C)(C(=O)NC1CCCCC1)N(Cc1ccc(OC)cc1)C2=O (configuration not stated)	-3.33%	-0.87%	-8.84%	-0.923%	-3.16%
CCN1CCN(c2ccc(Nc3cc(N(C)C(=O)Nc4c(Cl)c(OC)cc(OC)c4Cl)ncn3)cc2)CC1	-7.3%	-3.85%	-26.7%	-36.3%	-1.9%
O=C1CN(Cc2ccc(-c3cc(F)cc(F)c3)cc2)CCN1c1cc(Cl)ncn1	-3.12%	2.1%	-1.47%	-4.1%	-3.87%
CCCCOc1ccc(-c2cncc(C(=O)NCc3cccnc3N3CCOCC3)c2)cc1Cl	-0.209%	17.6%	4.69%	-4.55%	-0.962%
CC(C)CC(=O)O[C@@H]1OC=C(CO[C@@H]2O[C@H](CO[C@@H]3O[C@H](CO)[C@@H](O)[C@H](O)[C@H]3O)[C@@H](O)[C@H](O)[C@H]2O)[C@H]2C[C@H](O)[C@@H](CO)[C@@H]12	0%	4.22%	10%	-6.88%	2.22%
CCCCN1C(=O)c2cc(C(=O)Nc3cccc(C(=O)OCC)c3)nn2CC1(C)C(=O)NC1CCCC1 (configuration not stated)	-3.54%	0%	-9.94%	-9.02%	-0.856%
COc1ccccc1CC(C(=O)O)N(C)C(=O)c1ccccc1 (configuration not stated)	0.46%	-4.57%	5.12%	-12.2%	-8.67%
C=CCn1c(=O)c2ccc(C(=O)NC(C)C)cc2n2c(=O)n(CC(=O)NC3CCCCC3)nc12	8.09%	2.55%	14.3%	7.49%	9.57%
COc1ccccc1OCCNC(=O)c1ccc2c(c1)N(C)C1CCCCN1C2=O (configuration not stated)	-17.1%	-10.3%	-10.9%	-20.2%	-9.43%
COc1ccc(-c2cc3n(n2)CC(C)(C(=O)NCc2ccccc2)N(Cc2ccc(OC)cc2OC)C3=O)cc1 (configuration not stated)	6.76%	0%	9.15%	2.95%	3.19%

SMILES	activity change, negative = inhibition [1]	activity change, negative = inhibition [2]	activity change, negative = inhibition [3]	activity change, negative = inhibition [4]	activity change, negative = inhibition [5]
COCCN1C(=O)c2cc3sccc3n2CC1(C)C(=O)NC1CCCCC1 (configuration not stated)	3.99%	4.52%	8.55%	4.02%	3.32%
COc1ccccc1CC(=O)N1CCC2(CC1)N=C(c1ccc(C)cc1)NO2	-0.499%	2.45%	-0.288%	1.33%	3.95%
C=C(C)C(=O)O[C@H]1C[C@@](C)(O)C2(O)CCC(C)(/C=C3/OC(=O)C(COC)=C31)O2 (some centres not stated)	0%	5.96%	9.49%	-6.42%	3.51%
CCOc1ccccc1NC(=O)N1Cc2c(sc3c2CCCC3)-n2cccc2C1c1cc(F)cc(F)c1 (configuration not stated)	-4.14%	0.688%	0.702%	-8.6%	1.29%
Cc1ccc(NS(=O)(=O)c2ccc3[nH]c4c(c3c2)CCCC4)c(Cl)c1	1.22%	5.87%	3.37%	-3.27%	1.67%
CC[C@@]1(O)CCN(C(=O)c2ccc(CSc3ccccc3)o2)C[C@H]1O	-4.72%	-5.51%	-0.854%	-11%	-4.96%
Oc1cc(O)cc(/C=C/c2ccc(O)c(O)c2)c1	-55.6%	-4.23%	-13.5%	-14.6%	-8.59%
COc1ccc(OC)c(CNC(=O)Cn2ccc3cc(S(=O)(=O)N4CCCC4)ccc32)c1	1.67%	2.77%	-6.99%	-1.17%	2.69%
NC(=O)c1cnc(N[C@@H]2CCCC[C@H]2N)nc1Nc1cccc(-n2nccn2)c1	-9.04%	–	-14.6%	–	–
O=C(NC1CCCCC1)O[C@@H]1CO[C@H]2[C@@H]1OC[C@@H]2n1nnnc1-c1ccc2c(c1)OCCO2	-3.69%	-3.43%	-0.059%	-9.07%	-4.25%
COc1ccccc1CCNC(=O)Cn1ccc2cc(S(=O)(=O)N3CCC(C)CC3)ccc21	-0.15%	4.84%	-3.84%	-1.56%	0.291%
CCCn1c(=O)c2ccc(C(=O)NC(C)C)cc2n2c(SCC(=O)Nc3cc(F)ccc3F)nnc12	-2.62%	1.84%	4.16%	-0.61%	2.09%
Nc1nnc(-c2cccc(Cl)c2Cl)c(N)n1	5.72%	10%	5.11%	-2.71%	7.2%
Cc1cccc(C(=O)N2CCCCCCN(C)C(=O)[C@@H]3CCC[C@@H]32)c1	-3.26%	-14%	-3.26%	-17.1%	-23.5%
CC(=O)NC(C(=O)OC1CCC(C)(C)C2CC=C3C(=O)OCC3(O)C12C)C(C)C (configuration not stated)	0%	-14%	-1.55%	-23.2%	-1.82%
CCCN1C(=O)c2cc(C(=O)N3CCN(C4CCCCC4)CC3)nn2CC1(C)C(=O)NC1CCCC1 (configuration not stated)	-6.85%	-3.09%	-1.87%	-7.73%	-5.21%
CN(Cc1ccno1)Cc1cn(C)nc1-c1ccc(C2CCCCC2)cc1	1.28%	1.68%	3.86%	-6.82%	15.2%
CC[C@@]1(O)C(=O)OCc2c1cc1n(c2=O)Cc2cc3c(CN(C)C)c(O)ccc3nc2-1	-59.8% and -1.29%	-8.38% and 3.82%	-12.9% and -9.62%	-11.9% and -10.8%	-45% and -2.45%
CCCn1c(=O)c2ccc(C(=O)NC(C)CC)cc2n2c(SCC(=O)Nc3ccc(F)cc3)nnc12 (configuration not stated)	0.517%	1.77%	8.91%	-3.56%	3.04%
COc1cccc(CN[C@H]2[C@H](O)[C@H](O)C[C@@H]2c2ccc(N3CCOCC3)nc2)c1	-3.73%	-1.32%	-0.293%	-10.8%	-3.64%

SMILES	activity change, negative = inhibition [1]	activity change, negative = inhibition [2]	activity change, negative = inhibition [3]	activity change, negative = inhibition [4]	activity change, negative = inhibition [5]
CN1CCCCCCN(C(=O)c2cc(CN3CCOCC3)on2)[C@H]2CCC[C@H]2C1=O	-3.36%	-21.8%	-3.08%	-18.5%	-4.23%
O=C(Cn1c(=O)n2nc(-c3ccccc3)nc2c2ccccc21)N1CCN(c2ccc(F)cc2)CC1	12.2%	0.505%	11.2%	8.33%	2.86%
CCc1ccc(NC(=O)Cn2nc3n(Cc4ccccc4)c(=O)c4ccccc4n3c2=O)cc1	-2.51%	2.76%	0.246%	1.52%	-1.44%
COC(=O)C1(C)c2[nH]c3ccccc3c2CCN1C(=O)CCl (configuration not stated)	-5.52%	-9.4%	12.6%	-9.96%	5.02%
C=C1CCc2occ(C)c2[C@H]2[C@H]1[C@@]13O[C@@]1(C[C@@H](C)[C@H]3OC(C)=O)[C@H]1O[C@@]21C	0.48%	-2.92%	8.43%	-13.7%	3.84%
COc1ccc(C(=O)Cn2nc3n(CC(C)C)c(=O)c4ccc(C(=O)NCC(C)C)cc4n3c2=O)cc1	5.52%	2.63%	5.55%	6.5%	5.56%
CC(=O)OC/C(=C/C(=O)O)CC[C@@H]1C(C)=CC(=O)[C@@H]2C(C)(C)CCC[C@@]12C	-4.38%	-3.84%	3.18%	-12.6%	0.389%
COc1cccc(CN2C(=O)CSc3c(c4ccccc4n3C)C2C(=O)NCCC(C)C)c1 (configuration not stated)	3.95%	5.95%	-2.65%	-6.48%	0.605%
CC1=CC(=O)CC(C)(C)C1(O)CCC(C)O (configuration not stated)	2.13%	7.94%	9.54%	-7.7%	8.34%
C=C1CCC[C@]2(C)CC[C@@](O)(C(=C)C(=O)O)C[C@@H]12	-11.6%	-12.7%	-3.59%	-24.6%	-20.4%
CCOCCCNC(=O)C1c2c(n(C)c3ccccc23)SCC(=O)N1c1ccccc1CC (configuration not stated)	12.2%	1.89%	7.37%	8.97%	9.33%
O=C1CCCCC(C(=O)N2CCOCC2)N1 (configuration not stated)	-0.32%	1.97%	1.87%	-1.64%	-0.296%
O=C1CC(c2noc(COc3ccccc3)n2)CN1C1CCCCC1 (configuration not stated)	-0.396%	0.769%	1.7%	-3.24%	1.99%
CC1CC(=O)C2=C(O1)OC1(C)CCC3C(C)(C)C=CC(=O)C3(C)C1C2 (configuration not stated)	-7.55%	-8.59%	5.98%	-95.6%	-2.38%
CN(c1cc(=O)c2ccnc(-c3cncnc3)c2o1)C1CCOCC1	-1.17%	0.818%	0.18%	-0.017%	4.52%
CCCN1C(=O)c2ccccc2CC1(C)C(=O)NC1CCCCCC1 (configuration not stated)	-2.66%	4.57%	7.28%	8.44%	0.626%
C=Cc1ccc(Cn2nc3n(CC(C)C)c(=O)c4ccc(C(=O)NCC(C)C)cc4n3c2=O)cc1	4.14%	1.59%	3.6%	1.98%	4.22%
CN(C)C(=O)c1cc2cnc(Nc3ccc(N4CCNCC4)cn3)nc2n1C1CCCC1	1.35%	2.81%	-3.85%	-46.8%	-8.25%
CC(C)CC1NC(=O)C2CC3(O)c4ccccc4NC3N2C1=O (configuration not stated)	-0.849%	-0.186%	7.67%	-13.6%	-5.39%
CCCn1c(=O)c2ccccc2n2c(SCC(=O)NCc3ccc(Cl)cc3)nnc12	-1.92%	2.02%	6.63%	-3.72%	0.704%
